Assay results published in the supplement of paper PMC4604168 (melanoma cell lines).
The list shows a part of the results. Repeats are few or missing, and single values can be far off.

Legend:
Experiment in all cases: cell count relative to DMSO control; melanoma cells; higher = more viable cells
MeWo = details: library dose: low library concentration; 72 h
RPMI7951 = details: library dose: low library concentration; 72 h
RVH-421 = details: library dose: low library concentration; 72 h
SkMel28 = details: library dose: low library concentration; 72 h
SkMel30 = details: library dose: low library concentration; 72 h
UACC62 = details: library dose: low library concentration; 72 h
WM115 = details: library dose: low library concentration; 72 h
WM1716 = details: library dose: low library concentration; 72 h
WM1745 = details: library dose: low library concentration; 72 h
WM3526 = details: library dose: low library concentration; 72 h
WM3619 = details: library dose: low library concentration; 72 h
WM451Lu = details: library dose: low library concentration; 72 h
SkMel2 = details: library dose: low library concentration; 72 h
SkMel5 = details: library dose: low library concentration; 72 h
UACC257 = details: library dose: low library concentration; 72 h
501Mel = details: library dose: standard library concentration; 72 h
A101D = details: library dose: standard library concentration; 72 h
A2058 = details: library dose: standard library concentration; 72 h
A375 = details: library dose: standard library concentration; 72 h
MZ2-MEL = details: library dose: low library concentration; 72 h

Work on CNC(=O)c1cc(Oc2ccc(NC(=O)Nc3ccc(Cl)c(C(F)(F)F)c3)cc2)ccn1 [sorafenib] + COCC[n+]1c2c(n(Cc3cnccn3)c1C)C(=O)c1ccccc1C2=O [YM155] (first compound 0.4 µM, partner dose 0.0004 µM) yielded a cell count (MeWo) of 113%, a cell count (RPMI7951) of 76.8% and a cell count (RVH-421) of 88.6%. For the same compound, the cell count (SkMel28) was 99.1%, the cell count (SkMel30) was 102% and the cell count (UACC62) was 107%. For the same compound, the cell count (WM115) was 113%, the cell count (WM1716) was 95.6% and the cell count (WM1745) was 108%. It also gave a cell count (WM3526) of 117%, a cell count (WM3619) of 102% and a cell count (WM451Lu) of 86.4%.
C[C@@H](Oc1cc(-c2cnn(C3CCNCC3)c2)cnc1N)c1c(Cl)ccc(F)c1Cl [Crizotinib] + O=C(Nc1cccc(Cl)c1)Nc1ncc(CCNc2ncnc3ccsc23)s1 [SNS314] (first compound 0.2 µM, partner dose 0.0008 µM) gave a cell count (MeWo) of 92.9%, a cell count (RPMI7951) of 117% and a cell count (RVH-421) of 113%. It also gave a cell count (SkMel28) of 88.7%, a cell count (SkMel2) of 101% and a cell count (SkMel30) of 113%. The cell count (SkMel5) was 96.4%, the cell count (UACC257) was 79.2% and the cell count (UACC62) was 92.8%. It also gave a cell count (WM115) of 76.5%, a cell count (WM1716) of 113% and a cell count (WM1745) of 112%. For the same compound, the cell count (WM3526) was 94.8%, the cell count (WM3619) was 126% and the cell count (WM451Lu) was 88.7%.
In the case of CNC(=O)c1cc(Oc2ccc(NC(=O)Nc3ccc(Cl)c(C(F)(F)F)c3)cc2)ccn1 [sorafenib] + CC(C)CCN1c2nc(Nc3cc(F)c(O)c(F)c3)ncc2N(C)C(=O)C1C [BID1870] (first compound 0.4 µM, partner dose 0.2 µM), the cell count (MeWo) is reported as 88.6%, the cell count (RPMI7951) is reported as 96.4% and the cell count (RVH-421) is reported as 106%. It also gave a cell count (SkMel28) of 80%, a cell count (SkMel30) of 89.3% and a cell count (SkMel5) of 99.6%. For the same compound, the cell count (UACC257) was 88.8%, the cell count (UACC62) was 88.6% and the cell count (WM115) was 89.3%. For the same compound, the cell count (WM1716) was 108%, the cell count (WM1745) was 93.4% and the cell count (WM3526) was 87%. For the same compound, the cell count (WM3619) was 103% and the cell count (WM451Lu) was 117%.
Compound CN1CCN(c2ccc3nc(-c4c(N)c5c(F)cccc5[nH]c4=O)[nH]c3c2)CC1 [Dovitinib] + COc1cc(N2CCC(N3CCN(C)CC3)CC2)ccc1Nc1ncc(Cl)c(Nc2ccccc2S(=O)(=O)C(C)C)n1 [NVP-TAE684] (first compound 0.5 µM, partner dose 0.4 µM) has a cell count (501Mel) of 53.6%, a cell count (A101D) of 52.4% and a cell count (A2058) of 13.9%. It also gave a cell count (A375) of 39.9%.
In the case of CNC(=O)c1cc(Oc2ccc(NC(=O)Nc3ccc(Cl)c(C(F)(F)F)c3)cc2)ccn1 [sorafenib] + c1cc(-c2cnn3cc(-c4ccc(OCCN5CCCCC5)cc4)cnc23)ccn1 [Dorsomorphin] (first compound 2 µM, partner dose 2 µM), the cell count (501Mel) is reported as 54.3%, the cell count (A101D) is reported as 79.2% and the cell count (A2058) is reported as 74.4%. The cell count (A375) was 87%.
In the case of C[C@@H](Oc1cc(-c2cnn(C3CCNCC3)c2)cnc1N)c1c(Cl)ccc(F)c1Cl [Crizotinib] + CNC(=O)c1cc(Oc2ccc(NC(=O)Nc3ccc(Cl)c(C(F)(F)F)c3)cc2)ccn1 [sorafenib] (first compound 0.2 µM, partner dose 0.4 µM), the cell count (MZ2-MEL) is reported as 88.3%, the cell count (MeWo) is reported as 93.5% and the cell count (RPMI7951) is reported as 90.8%. For the same compound, the cell count (RVH-421) was 82.6%, the cell count (SkMel28) was 88.4% and the cell count (SkMel30) was 82.7%. It also gave a cell count (UACC62) of 94.8%, a cell count (WM115) of 98.3% and a cell count (WM1716) of 117%. For the same compound, the cell count (WM1745) was 90.3%, the cell count (WM3526) was 117% and the cell count (WM3619) was 96.9%. It also gave a cell count (WM451Lu) of 110%.
C[C@@H](Oc1cc(-c2cnn(C3CCNCC3)c2)cnc1N)c1c(Cl)ccc(F)c1Cl [Crizotinib] + N#Cc1c(O)c2c(-c3ccc(-c4ccccc4O)cc3)csc2[nH]c1=O [A769662] (first compound 1 µM, partner dose 10 µM) showed a cell count (501Mel) of 76.8%, a cell count (A101D) of 88.6% and a cell count (A2058) of 99.9%. It also gave a cell count (A375) of 116%.
In the case of C=CCNC1=C2C[C@@H](C)C[C@H](OC)[C@H](O)[C@@H](C)/C=C(\C)[C@H](OC(N)=O)[C@@H](OC)/C=C\C=C(/C)C(=O)NC(=CC1=O)C2=O [Tanespimycin] + O=C(Nc1cccc(Cl)c1)Nc1ncc(CCNc2ncnc3ccsc23)s1 [SNS314] (first compound 0.002 µM, partner dose 0.0008 µM), the cell count (MeWo) is reported as 93.6%, the cell count (RPMI7951) is reported as 82.7% and the cell count (RVH-421) is reported as 106%. It also gave a cell count (SkMel28) of 96%, a cell count (SkMel2) of 95.4% and a cell count (SkMel30) of 92.9%. The cell count (SkMel5) was 99.8%, the cell count (UACC257) was 75.7% and the cell count (UACC62) was 102%. It also gave a cell count (WM115) of 64.5%, a cell count (WM1716) of 102% and a cell count (WM1745) of 92.3%. The cell count (WM3526) was 91.8%, the cell count (WM3619) was 91.6% and the cell count (WM451Lu) was 87%.
CN1CCN(c2ccc3nc(-c4c(N)c5c(F)cccc5[nH]c4=O)[nH]c3c2)CC1 [Dovitinib] + CCN(CC)CCCCNc1ncc2cc(-c3cc(OC)cc(OC)c3)c(NC(=O)NC(C)(C)C)nc2n1 [PD173074] (first compound 0.5 µM, partner dose 0.5 µM) was tested, and the cell count (501Mel) was 85.6%, the cell count (A101D) was 58.6% and the cell count (A2058) was 51.5%. For the same compound, the cell count (A375) was 75.5%.
CNC(=O)c1cc(Oc2ccc(NC(=O)Nc3ccc(Cl)c(C(F)(F)F)c3)cc2)ccn1 [sorafenib] + CCc1ccc(CCOc2ccc(CC3SC(=O)NC3=O)cc2)nc1 [pioglitazone] (first compound 2 µM, partner dose 10 µM) showed a cell count (501Mel) of 103%, a cell count (A101D) of 78.3% and a cell count (A2058) of 82.3%. The cell count (A375) was 104%.
With C=CCNC1=C2C[C@@H](C)C[C@H](OC)[C@H](O)[C@@H](C)/C=C(\C)[C@H](OC(N)=O)[C@@H](OC)/C=C\C=C(/C)C(=O)NC(=CC1=O)C2=O [Tanespimycin] + COc1ccc2c(c1)CCC1C2CCC2(C)C(NCCCCCCN3C(=O)C=CC3=O)CCC12 [U73122] (first compound 0.01 µM, partner dose 2 µM) the cell count (501Mel) was 93.5%, the cell count (A101D) was 61.7% and the cell count (A2058) was 88.9%. The cell count (A375) was 73.3%.
In the case of C=CCNC1=C2C[C@@H](C)C[C@H](OC)[C@H](O)[C@@H](C)/C=C(\C)[C@H](OC(N)=O)[C@@H](OC)/C=C\C=C(/C)C(=O)NC(=CC1=O)C2=O [Tanespimycin] + COc1cc(N2CCC(N3CCN(C)CC3)CC2)ccc1Nc1ncc(Cl)c(Nc2ccccc2S(=O)(=O)C(C)C)n1 [NVP-TAE684] (first compound 0.01 µM, partner dose 0.4 µM), the cell count (501Mel) is reported as 73.7%, the cell count (A101D) is reported as 71.3% and the cell count (A2058) is reported as 59.5%. The cell count (A375) was 87%.
Work on C[C@@H](Oc1cc(-c2cnn(C3CCNCC3)c2)cnc1N)c1c(Cl)ccc(F)c1Cl [Crizotinib] + Oc1cc(-c2nc(-c3ccccc3)[nH]c2-c2ccncc2)ccc1Cl [L779450] (first compound 1 µM, partner dose 1 µM) yielded a cell count (501Mel) of 49.8%, a cell count (A101D) of 64.7% and a cell count (A2058) of 69.9%. It also gave a cell count (A375) of 79.4%.
For CN1CCN(c2ccc3nc(-c4c(N)c5c(F)cccc5[nH]c4=O)[nH]c3c2)CC1 [Dovitinib] + COC(=O)c1sccc1S(=O)(=O)Nc1ccc(Nc2ccccc2)cc1OC [GSK0660] (first compound 0.5 µM, partner dose 5 µM), the cell count (501Mel) was 72.6%, the cell count (A101D) was 72.3% and the cell count (A2058) was 66.1%. The cell count (A375) was 81.8%.
Work on C[C@@H](Oc1cc(-c2cnn(C3CCNCC3)c2)cnc1N)c1c(Cl)ccc(F)c1Cl [Crizotinib] + Cc1cc([N+](=O)[O-])ccc1NS(=O)(=O)c1cc(Cl)ccc1Cl [FH535] (first compound 1 µM, partner dose 5 µM) yielded a cell count (501Mel) of 69.4%, a cell count (A101D) of 64.9% and a cell count (A2058) of 70.7%. It also gave a cell count (A375) of 84.7%.
CS(=O)(=O)CCNCc1ccc(-c2ccc3ncnc(Nc4ccc(OCc5cccc(F)c5)c(Cl)c4)c3c2)o1 [lapatinib] + Cn1cc(/C=C2\C(=O)Nc3cccnc32)c2ccccc21 [GW441756] (first compound 4 µM, partner dose 2 µM) was tested, and the cell count (501Mel) was 70.8%, the cell count (A101D) was 79.6% and the cell count (A2058) was 87.3%. For the same compound, the cell count (A375) was 132%.
C=CCNC1=C2C[C@@H](C)C[C@H](OC)[C@H](O)[C@@H](C)/C=C(\C)[C@H](OC(N)=O)[C@@H](OC)/C=C\C=C(/C)C(=O)NC(=CC1=O)C2=O [Tanespimycin] + CCCCCCCCCCCC1=C(O)C(=O)C=C(O)C1=O [Embelin] (first compound 0.01 µM, partner dose 6 µM) showed a cell count (501Mel) of 73.3%, a cell count (A101D) of 72.6% and a cell count (A2058) of 83.2%. It also gave a cell count (A375) of 95.1%.
C[C@@H](Oc1cc(-c2cnn(C3CCNCC3)c2)cnc1N)c1c(Cl)ccc(F)c1Cl [Crizotinib] + COC(=O)c1sccc1S(=O)(=O)Nc1ccc(Nc2ccccc2)cc1OC [GSK0660] (first compound 1 µM, partner dose 5 µM) showed a cell count (501Mel) of 118%, a cell count (A101D) of 91.6% and a cell count (A2058) of 79.4%. For the same compound, the cell count (A375) was 98.3%.
